Some of the results follow. Shown are side measurements of this screen, not its main read-out; they come without a call.
Tests used:
Experiment in all cases: Primary Screen for Target Class Profiling of Small Molecule Inhibitors of Methyltransferases
[1] = biological target: Glycine N-methyltransferase (Homo sapiens) (UniProt Q14749); conditions: purified enzyme, MTase-Glo SAH luminescence; measured here: GNMT inhibition; at 40 µM; stronger effect = lower value
Outline: (§1)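 Each enzyme was reacted with SAM and its substrate, with compounds tested once at 40 uM; SAH formed was read by MTase-Glo luminescence.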

[2] = biological target: Guanidinoacetate N-methyltransferase (Homo sapiens) (UniProt Q14353); conditions: purified enzyme, MTase-Glo SAH luminescence; measured here: GAMT inhibition; at 40 µM; stronger effect = lower value
Outline: as §1

[3] = biological target: Histamine N-methyltransferase (Homo sapiens) (UniProt P50135); conditions: purified enzyme, MTase-Glo SAH luminescence; measured here: HNMT inhibition; at 40 µM; stronger effect = lower value
Outline: as §1

[4] = biological target: Nicotinamide N-methyltransferase (Homo sapiens) (UniProt P40261); conditions: purified enzyme, MTase-Glo SAH luminescence; measured here: NNMT inhibition; at 40 µM; stronger effect = lower value
Outline: as §1

[5] = biological target: Phenylethanolamine N-methyltransferase (Homo sapiens) (UniProt P11086); conditions: purified enzyme, MTase-Glo SAH luminescence; measured here: PNMT inhibition; at 40 µM; stronger effect = lower value
Outline: as §1
On the % scale 0 is the no-effect control and ±100 the full control effect.

SMILES | activity change, negative = inhibition [1] [%] | activity change, negative = inhibition [2] [%] | activity change, negative = inhibition [3] [%] | activity change, negative = inhibition [4] [%] | activity change, negative = inhibition [5] [%]
CCC1OC(=O)C(C)CC(C)C(=O)/C(C)=C/C(C)C(=O)/C=C/C1(C)O (stereo not given) | 0.104 | 7.82 | 8.77 | -5.97 | 4.28
CCc1ccc(NC(=O)Cn2nc3nc(Nc4ccc(C)cc4)ccn3c2=O)cc1 | -1.35 | 4.04 | -10.4 | -5.06 | -4.52
CC1(C(=O)NC2CCCCC2)Cn2c(ccc2-c2ccccc2)C(=O)N1CCCc1ccccc1 (stereo not given) | 6.25 | 0.815 | 7.41 | 12.3 | 6.16
CCN1CCN(C(=O)C23CCC=C2N(C2CCCC2)C(=O)CC3)CC1 (stereo not given) | -1.84 | -2.14 | 1.47 | 2.89 | 1.81
Cc1ccc([S+](=O)([O-])N2CCN(c3nc4ncccc4o3)CC2)cc1 | -4.04 | -5.58 | -3.03 | -11.3 | -4.43
C=CCn1c(=O)c2ccc(C(=O)NC(C)CC)cc2n2c(=O)[nH]nc12 (stereo not given) | -1.26 | 0.561 | 6.41 | 3.56 | -3.31
COc1ccc(C2=N[C@@H](c3ccc(Cl)cc3)[C@@H](c3ccc(Cl)cc3)N2C(=O)N2CCNC(=O)C2)c(OC(C)C)c1 | 1.27 | 8.52 | 0.477 | -40.5 | -1.55
Cc1ccc(C)c(NS(=O)(=O)c2cc3c(cc2Cl)n(C)c(=O)n3C)c1 | 11.7 | 0.151 | -1.22 | 4.89 | 8.42
CCc1ccccc1NC(=O)N1CCn2c(C)ccc2C1C(C)C (stereo not given) | 0.654 | 4.77 | -10.3 | -7.45 | -4.12
O=C(Nc1cccnn1)N1CCN(c2nccc(-c3ccc(F)c(F)c3)n2)CC1 | -5.86 | -8.02 | -1.52 | -15 | -5.93
O=C(CCCn1cncn1)NC1CC(c2cc(N3CCOCC3)ncn2)C1 (stereo not given) | -5.01 | -3.95 | -3.28 | -11.4 | -5.82
CSc1ccc(CCN2C(=O)c3ccc(-c4ccccc4)n3CC2(C)C(=O)NC2CCCC2)cc1 (stereo not given) | 5.74 | 5.32 | 9.04 | 5.52 | 4.54
CS(=O)(=O)N[C@H]1CCN2C(=O)c3cc(-c4cccc(C(F)(F)F)c4)ccc3NC(=O)[C@@H]2C1 | -5.51 | 0.92 | -2.98 | -3.06 | 4.94
CCCn1c(=O)c2cc(F)ccc2n2c(SCC(=O)Nc3cccc(Cl)c3)nnc12 | 1.83 | 0.474 | 11.5 | -0.104 | 7.28
Cc1ccc2c(c1)c(C(=O)N[C@H](c1cnn(C)c1)C1CC(O)C1)nn2C (stereo not given in full) | -1.33 | -0.032 | 3.04 | -4.88 | -3.35
O=C(N[C@@H]1CN(C(=O)Cn2c(=O)oc3ccccc32)CC[C@@H]1CO)c1ccccc1 | -4.76 | -11.8 | -3.28 | -15.5 | -7.06
CC(C)CC(=O)n1cc(C(N)=O)c(=O)cc1C(O)c1ccccc1 (stereo not given) | 1.27 | 3.12 | 8.06 | -8.95 | -2.58
CCCn1c(=O)c2ccc(C(=O)NCC(C)C)cc2n2c(=O)n(CC(=O)c3cc(C)ccc3C)nc12 | 5.51 | 0.919 | 10 | 1.09 | 4.22
COC(=O)[C@@H]1CN(C(=O)Nc2ccccc2)CCN1C(C)=O | -6.71 | -14.4 | -4.03 | -7.38 | -3.33
COc1ccc(-c2cc3n(n2)CC(C)(C(=O)NCc2ccccc2OC)N(c2ccccc2C)C3=O)cc1 (stereo not given) | 1.56 | 4.38 | 0.639 | -0.401 | -10.4

SMILES | activity change, negative = inhibition [1] [%] | activity change, negative = inhibition [2] [%] | activity change, negative = inhibition [3] [%] | activity change, negative = inhibition [4] [%] | activity change, negative = inhibition [5] [%]
Cc1ccc(Cn2nc3n(CCCOC(C)C)c(=O)c4ccccc4n3c2=O)cc1 | -6.22 | -0.509 | 3.49 | -18.8 | -4.17
CC1CCN=C(N)S1 (stereo not given) | 8.35 | 1.12 | -35.8 | -20.5 | -2.5
COc1ccc(N2C(=O)c3cc(C(C)(C)C)nn3CC2(C)C(=O)NC2CCCCCC2)cc1 (stereo not given) | 0.438 | 0 | 5.3 | -3.33 | -4.83
COc1ccccc1CCNC(=O)c1cc2n(n1)CC(C)(C(=O)NCc1ccc(C)cc1)N(C)C2=O (stereo not given) | 1.21 | 1.4 | -1.33 | -1.23 | -0.579
COc1ccc(OC2CN(CC3CC3)C2)cc1 | 1.24 | -0.572 | -0.699 | -1.01 | -2.85
CCOC(=O)Cc1c(-c2ccccc2)c2cc(Br)ccc2[nH]c1=O | -7.66 | 3.19 | -2.73 | -8.89 | -4.11
O=c1cc(-c2ccccc2)c2ccc(OCc3ccc(F)cc3)cc2o1 | -4.99 | 2.32 | -4.32 | -1.3 | -8.71
CCCN1C(=O)c2nc3ccccc3n2CC1(C)C(=O)NC1CCCC1 (stereo not given) | 4.11 | 4.75 | 3.42 | 6.36 | -0.929
CCN1C(=O)c2cc(C(=O)NC3CCCCCC3)nn2CC1(C)C(=O)NC1CCCC1 (stereo not given) | -1.6 | 3.15 | -1.32 | -1.55 | -4.08
CC(C)Cn1c(=O)c2ccc(Cl)cc2n2c(SCC(=O)Nc3ccc4c(c3)OCO4)nnc12 | -0.878 | 2.39 | 7.93 | 1.73 | -1.44
O=C(CCc1nnc2n(Cc3ccccc3Cl)c(=O)c3ccccc3n12)NCCCN1CCCC1=O | -0.415 | 0 | 8.56 | 4.78 | 0.334
CC1CCCN(S(=O)(=O)c2ccc3[nH]c4c(c3c2)CCCC4)C1 (stereo not given) | -1.42 | 0.997 | 3.31 | -5.09 | -0.113
COc1ccc(CCN2C(=O)c3ccc(-c4ccco4)n3CC2(C)C(=O)NCCC(C)C)cc1OC (stereo not given) | 2.56 | 0.413 | 12.9 | -15.4 | 3.9
CC1CCCCC1NC(=O)C1(C)Cn2c(nc3ccccc32)C(=O)N1Cc1cccnc1 (stereo not given) | 4.76 | 1.35 | 9.17 | 10.4 | 3.5
O=C(O)CO[C@@H]1COCC[C@H]1NC(=O)c1ccccc1-c1ncn[nH]1 | -5.52 | -9.19 | -2.71 | -12.5 | -11.2
Nc1nc(CCCNC(=O)C2CC(=O)N(Cc3ccccn3)C2)cs1 (stereo not given) | -7.04 | -8.49 | -3.34 | -14.1 | -18.9
CC(C)OCCCNC(=O)c1cc(C2CC2)nc2onc(C3CCNC3)c12 (stereo not given) | -5.7 | -8.87 | -5.75 | -15.1 | -12
Cc1cc(NC(=O)N2CCn3cccc3C2C(C)C)ccc1Br (stereo not given) | 12 | 2.7 | 3.83 | -1.62 | 7.32
O=C(Cn1c(=O)oc2cc(S(=O)(=O)NCc3ccccc3)ccc21)Nc1ccc(F)cc1 | -5.11 | 0 | 3.79 | -6.78 | -3.67
C/C(=C\C(=O)OCCCCCCCCC(=O)O)C[C@@H]1OC[C@H](C[C@@H]2O[C@H]2[C@@H](C)[C@H](C)O)[C@@H](O)[C@H]1O | -0.094 | -10.2 | -2.82 | -18.5 | -11.1

SMILES | activity change, negative = inhibition [1] [%] | activity change, negative = inhibition [2] [%] | activity change, negative = inhibition [3] [%] | activity change, negative = inhibition [4] [%] | activity change, negative = inhibition [5] [%]
CCCn1c(=O)c2ccc(Cl)cc2n2c(=O)n(Cc3ccccc3F)nc12 | -1.52 | 0.847 | 4.79 | -2.16 | -3.14
CCC(CC)CN1CC2(CCN(C(=O)CCc3nncn3C)CC2)OC1=O | -5.25 | -0.926 | 1.07 | 0.387 | 1.6
CCCN1C(=O)c2c(-n3cccc3)c3cc(C)ccc3n2CC1(C)C(=O)NC1CCCCC1 (stereo not given) | -6.78 | -2.61 | -6.49 | -21.3 | -5.66
CCOc1ccccc1CN1C(=O)c2cc(C(C)(C)C)nn2CC1(C)C(=O)NC1CCCCCC1 (stereo not given) | 2.63 | 3.75 | 2.68 | 4.95 | -1.68
COC(=O)c1ncn2c1C(=O)N(Cc1ccc(C)o1)C(C)(C(=O)NC1CCCCC1)C2 (stereo not given) | 0.26 | 2.15 | -3.27 | 9.13 | 0.671
CC(C)CCNC(=O)C1(C)Cn2c(ccc2-c2ccco2)C(=O)N1Cc1ccccc1F (stereo not given) | 2.21 | 0.6 | 8.1 | 4.3 | -1.29
Cc1ccc(-c2noc([C@@H]3CCCN3C(=O)CCCc3ccccc3)n2)cc1 | -6.92 | -1.01 | 0.353 | -10.8 | -4.74
COc1cccc(NC(=O)Cn2c(=O)oc3cc(S(=O)(=O)N4CCCC4)ccc32)c1 | -6.74 | 1.75 | -4.3 | 2.87 | -42
CC(C)CCn1c(=O)c2ccc(C(=O)NC3CCCC3)cc2n2c(=O)n(Cc3cccc(Cl)c3)nc12 | 7.9 | 0.75 | 13 | 10.2 | 11.3
C[C@H](C(=O)N1Cc2ccccc2CC2(CCN(Cc3ccncc3)C2)C1)c1ccccc1 (stereo not given in full) | -8.03 | -8.76 | -12 | -22.4 | 9.59
CN(Cc1ccc(-c2ccccc2)cc1)C(=O)C1CC1 | -14.7 | -12.9 | -12.8 | -21.3 | -13.6
CC[C@H](NC(=O)[C@H](CS(=O)(=O)CC1CC1)N[C@@H](c1ccc(F)cc1)C(F)(F)F)C(=O)C(=O)NC1CC1 | 2.36 | 9.36 | 3.28 | -13.7 | -6.75
C[C@@H]1C[C@@H](O)[C@@]23CO[C@]2(CO)C[C@@H](O)CC3[C@@]12CC(c1ccoc1)OC2=O (stereo not given in full) | 1.97 | -0.136 | 8.63 | -8.77 | 5.91
CN1C(=O)N(C)C2(CCN(CCc3ccccc3)C2)C1=O (stereo not given) | 3.59 | 0.394 | 0.944 | 0.671 | -2.52
O=c1n(CC2CC2)nc2n1CCN(C1CCCC1)CC2 | -3.24 | -4.33 | -0.604 | -4.59 | -18.8
CC(CN1C(=O)c2cc3sccc3n2CC1(C)C(=O)NC1CCCCCCC1)c1ccccc1 (stereo not given) | 1.97 | 0.538 | 5.86 | 0.763 | 2.39
CC1(C(=O)N2CCC(C3CCN(S(C)(=O)=O)CC3)C2)CCOCC1 (stereo not given) | -0.31 | 0.077 | 2.79 | -6.86 | -3.23
COc1ccc(CN2C(=O)c3ccc(-c4ccco4)n3CC2(C)C(=O)NCc2ccc(Cl)cc2)c(OC)c1 (stereo not given) | -9.38 | -5.43 | 3.07 | -7.99 | -6.37
C[C@@H]1[C@H]2[C@H](O[C@@H]3O[C@H](CO)[C@@H](O)[C@H](O)[C@H]3O)OC=C(C(=O)O)[C@H]2C[C@@H]1O | 42.1 | 38.4 | 13.9 | 26.5 | 16.1
Cc1ccc(CNC(=O)C2(C)Cn3nc(C(=O)NCCN4CCOCC4)cc3C(=O)N2C)cc1 (stereo not given) | 5.6 | 0 | 7.29 | 2.4 | 4.65

From PubChem BioAssay AID1745853 (National Center for Advancing Translational Sciences (NCATS), 2022)
